Source: patent publication US20200148757A1 (KOREA ADVANCED INSTITUTE OF SCIENCE AND TECHNOLOGY, published 2020)

What was measured:
EGFR on A431 cells = biological target: T1, EGFR on A431 cells (human, UniProt P00533); experiment: immunofluorescence staining of A431 cells, Alexa-488 anti-human IgG
T1 construct: whole, on cells; A431 cells express high levels of EGFR (endogenous); also called EGFR+ A431 cancer cells

HER2 on SKBR3 cells = biological target: T2, HER2 on SKBR3 cells (human, UniProt P04626); experiment: immunofluorescence staining of SKBR3 cells, Alexa-488 anti-human IgG
T2 construct: whole, on cells; SKBR3 cells express high levels of HER2 (endogenous); also called HER2+ SKBR3 cancer cells

B1: VEGF-Grab (Fc fusion)
chain: GRPFVEMYSEIPEIIHMTEGRELVIPCRVTSPNITVTLKKFPLDTLIPDGKRIIWDSRKGFIISNATYKEIGLLTCEATVNGHLYKTNYLTHRQTNTIIDVQISTPSPVTLLRGHTLVLNCTATTPLNTRVQMTWSYPDEKNKNASVRRRIDQSNSHANIFYSVLTIDKMQNKDKGLYTCRVRSGPSFKSVNTSVHIYDKALE[sequence of human IgG1 Fc omitted]
notes: also called parental VEGF-Grab; VEGFR1 domain 2-VEGFR1 domain 3-hinge-Fc fusion protein
B1: no binding (tested: 50 nM) (EGFR on A431 cells); no binding (tested: 50 nM) (HER2 on SKBR3 cells).
